In PubChem BioAssay AID1645882 (National Center for Advancing Translational Sciences (NCATS), 2021):
Among all 16,000 compounds or so, about 120 (0.75%) were called active. Not shown: some 4% with an inconclusive outcome. The call rests on the fitted dose curve; in most records, active means well fitted inhibition curve with a large enough effect; inconclusive means small, poorly fitted or top-dose-only effect; inactive means no such curve, though single readings can be large or run the other way. The list shows a part of the results. Where a SMILES comes first, the peptide text is derived from it.

These compounds were tested against Rap guanine nucleotide exchange factor 3 (Homo sapiens) (UniProt O95398) (assay: Validation qHTS for antagonist of cAMP-regulated guanine nucleotide exchange factor 3 (EPAC1)). Conditions: EPAC1 Rap1B-BODIPY-GDP exchange, fluorescence; series mostly up to 150 µM; activity change, negative = inhibition: at the top concentration.
How it was run: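 EPAC1 (100 nM) mixed with 250 nM RAP1B-BODIPY-GDP and 50 uM GDP; compounds in concentration series, 5 min at room temperature. Fluorescence (ex 480/em 540 nm) read every 5 min for 30 min; normalized to ATA control and DMSO.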
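Further: plate controls were DMSO for no effect and ATA control for full effect; nearly all actives have a fitted effect of over 75% in size.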

Sequence of UniProt O95398 (O95398 whole entry, looked up): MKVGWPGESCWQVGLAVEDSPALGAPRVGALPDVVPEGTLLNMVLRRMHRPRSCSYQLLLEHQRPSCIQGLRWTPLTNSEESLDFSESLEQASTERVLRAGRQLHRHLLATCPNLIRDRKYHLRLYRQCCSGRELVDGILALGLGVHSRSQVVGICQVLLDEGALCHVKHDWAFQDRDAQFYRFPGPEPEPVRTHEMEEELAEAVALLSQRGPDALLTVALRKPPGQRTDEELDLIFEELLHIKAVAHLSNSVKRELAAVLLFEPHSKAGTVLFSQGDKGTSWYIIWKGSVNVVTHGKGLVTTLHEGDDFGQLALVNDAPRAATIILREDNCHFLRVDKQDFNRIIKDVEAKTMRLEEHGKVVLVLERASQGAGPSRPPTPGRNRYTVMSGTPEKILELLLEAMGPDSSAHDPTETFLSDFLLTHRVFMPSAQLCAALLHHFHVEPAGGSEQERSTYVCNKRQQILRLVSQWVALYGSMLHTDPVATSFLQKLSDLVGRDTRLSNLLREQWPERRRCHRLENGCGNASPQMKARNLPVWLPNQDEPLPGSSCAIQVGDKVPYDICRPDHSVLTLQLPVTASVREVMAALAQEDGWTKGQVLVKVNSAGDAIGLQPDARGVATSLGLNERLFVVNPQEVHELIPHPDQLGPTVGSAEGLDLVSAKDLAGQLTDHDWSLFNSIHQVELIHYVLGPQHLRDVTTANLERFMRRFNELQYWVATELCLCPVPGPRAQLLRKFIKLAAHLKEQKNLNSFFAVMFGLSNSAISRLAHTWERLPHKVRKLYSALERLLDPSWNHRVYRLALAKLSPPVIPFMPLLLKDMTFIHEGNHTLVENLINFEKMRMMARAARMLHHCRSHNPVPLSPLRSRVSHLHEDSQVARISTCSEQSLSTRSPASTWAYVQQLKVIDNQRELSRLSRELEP

Activity change, negative = inhibition, inactive:
Cc1ccc(C)c(CN2CCc3nnc(CNC(=O)c4cc(C)oc4C)n3CC2)c1 6.74%
O=c1c(-c2ccc(Cl)cc2)nc2cncnc2n1Cc1ccccc1 2.5%
COc1cc(/C=C/C(=O)O[C@H]2CC[C@]34C[C@]35CC[C@]3(C)[C@@H]([C@H](C)CCC=C(C)C)CC[C@@]3(C)[C@@H]5CC[C@H]4C2(C)C)ccc1O
COc1cccc(C2(CC(=O)N3CCN(c4nonc4C)CC3)CC(=O)N(C3CCCC3)C2=O)c1 (stereo not drawn) 8.55%
CC(=O)NCCNc1ncnc2ccc(-c3ccc(C(=O)N(C)C)cc3)cc12 26%
CC(NC(=O)c1cc(F)ccc1F)c1nnc2n1CCN(Cc1cccs1)CC2 (stereo not drawn) 15.3%
CCCc1cc(C(N)=S)ccn1 20.5%
COc1ccccc1-c1oc2ccccc2c(=O)c1OC 4.17%
FC(F)(F)c1ccccc1-c1ccc2ncnc(NC3CC3)c2c1 2.34%
Cc1ncc(C[n+]2csc(CCO)c2C)c(N)n1 13.3% [at 75.8 µM]
CC(C)c1c(C(=O)Nc2ccccc2)c(-c2ccccc2)c(-c2ccc(F)cc2)n1CC[C@@H](O)C[C@@H](O)CC(=O)O 19.1%
Cn1cccc1C(=O)N1CCC[C@@]2(CCN(c3ccncc3)C2)C1 12.6%
O=C1c2ccccc2C(=O)C1c1ccc(F)cc1 -3.07%
CC(=O)NC(CC(=O)O)C(=O)NC(CCC(=O)O)C(=O)O (stereo not drawn) (Ac-Asp-Glu-OH; configuration not given here) 10.2%
O=C(c1ccncc1)N1CCC2(CCCN(C(c3ccccc3)c3ccccc3)C2)CC1 -2.18%
COc1ccccc1CNc1ccnc(-c2ccc3c(c2)OCO3)n1 1.29%
COc1ccc(Oc2ncc3ncc(=O)n(CCC#N)c3n2)cc1 14.6%
Cc1ccc(C(=O)Nc2cccc(-c3nc(CNC(=O)c4ccc(F)cc4Cl)c(C)o3)c2)s1 -17.1%
COc1cc(=O)n2c(c1C(=O)N(C)Cc1nonc1C)CCN(CC1CC=CCC1)CC2 (stereo not drawn) -9.33%
Cc1cc(=O)c2c(O)c3c(O)cc(=O)c4c3c3c(cc(O)c1c23)C(C)(C)C=4O
COCCn1c(=O)c(-c2cc(F)cc(F)c2)nc2cncnc21 16%
O=c1oc2cc(O)ccc2cc1-c1ccc2c(c1)OCCO2 -8.11%
CCN[C@H]1CN(CCCOC)S(=O)(=O)c2sc(S(N)(=O)=O)cc21 10.3% [at 75.8 µM]
NS(=O)(=O)c1cc(C2(O)NC(=O)c3ccccc32)ccc1Cl (stereo not drawn)
CC(C)N(CCO)Cc1nc(N2CCOCC2)c2cc(Cl)ccc2n1 10.7%
COc1ccc(-c2nc3cnc(Nc4cccc(OC)c4)nc3n(C)c2=O)cc1 5.15%
COS(C)(=O)=O 19.1%
Cc1cc(C)nc(S[C@H]2C[C@@H](C(=O)N3CCN(c4ccccc4F)CC3)N(Cc3ccccc3F)C2)n1 -6.36%
Oc1cc2c(cc1O)[C@H]1c3ccc(O)c(O)c3OC[C@@]1(O)C2 15.5%
C=CC(N)CCC(=O)O (stereo not drawn)
CCCCCCCCCCCCCCCC(=O)OC/C=C(C)/C=C/C=C(C)/C=C/C1=C(C)CCCC1(C)C
O=C(O)CCCCCCCC(=O)O
O=C(CCCN1CCN2CCCC2C1)c1ccc(F)cc1 (stereo not drawn) 5.88%
CCCCCCCCCCCCCCCCCCNC(=O)OC1CCN(C(=O)OC[C@H](COC(=O)N(Cc2cccc[n+]2CC)C(=O)c2ccccc2OC)OC)CC1 17%
CC12CCC3C(CC3(C)C)C(C)(CCC1=O)O2 (stereo not drawn) 5.94%
CC1CN(Cc2cccn2-c2cccnc2)Cc2cc(Cl)ccc2O1 (stereo not drawn) -6.43%
Cc1noc(C)c1C(=O)N1CCC2(CC1)CCN(c1ncccn1)CC2 21.4%
COCC(=O)N1CCC2(CCCN(C(c3ccccc3)c3ccccc3)C2)CC1 4.64%
Cn1c(=O)c(-c2cccc(F)c2)nc2cncnc21 -7.64%
CCCCCCCCCC(=O)O[C@H](CC(=O)O)C[N+](C)(C)C 13.5%
C=C1C[C@@]23C[C@@]1(O)CC[C@@H]2[C@]12C=C[C@@H](O)[C@](C)(C(=O)O1)[C@@H]2[C@@H]3C(=O)O -10.2%
CN(C)c1ncc2nc(-c3ccccc3)c(=O)n(C)c2n1 16.1%
O=C(O)[C@H]1[C@H]2C[C@H]3c4[nH]c5ccccc5c4CCN3C[C@@H]2CC[C@@H]1O 13%
CC(O)CN(CCN(CC(C)O)CC(C)O)CC(C)O (stereo not drawn) 9.94%
COCC(=O)N1CCC2(CC1)CN(Cc1ccccc1OC)C2 0.463%
CN(C)Cc1ccccc1-c1cncnc1NC1CC1 24.4%
CC[N+](C)(CC)CCOC(=O)C1c2ccccc2Oc2ccccc21 5.2%
O=C(O)CN1C(=O)c2cccc3cccc(c23)C1=O
FC(F)(F)C(Cl)Br (stereo not drawn) 23.1%
CCCCN(CCCC)CCCOC(=O)c1ccc(N)cc1 1.71%
Cc1ccc(C(=O)c2ccc(CC(=O)O)n2C)cc1
C/C(=N\O)c1ccc(OCC(=O)N2CCCCC2)cc1 19.5%
c1ccc(Nc2nc(-c3cccnc3)nc3ccccc23)cc1 0.665%
Cc1cnc(SCC2CCCO2)nc1C1CCCN(Cc2nc(-c3ccccc3)cs2)C1 (stereo not drawn) 6.04%
O=C(c1cnccn1)N1CCC[C@@]2(CCN(c3ccccc3)C2)C1 7.37%
Cc1cn[nH]c1
COc1ccc(CN2CCCC(Cn3cc(C(=O)N4CCCC4)nn3)C2)c(O)c1 (stereo not drawn) 5.03%
NC(N)=NS(=O)(=O)c1ccc(N)cc1
COc1cccc(Nc2ncc3ncc(=O)n(C4CC4)c3n2)c1 5.85%
COc1ccccc1-c1cncnc1NCc1cccc(C)c1 19.6%
O=C(c1cccc(F)c1)N1CCC2(CCN(Cc3nccs3)CC2)CC1 10.1%
COC(=O)C1CCCCN1Cc1ccc2c(c1)CN(C(=O)c1ccc(C)s1)CCO2 (stereo not drawn) 1.06%
OCCN1CCN(CC/C=C2/c3ccccc3Sc3ccc(C(F)(F)F)cc32)CC1
O=C(c1ccco1)N1CCC2(CCN(Cc3ccncc3)CC2)CC1 12.7%
COc1ccc(N2C(=O)[C@@H]3C[C@H]2CN3Cc2ccc3nccnc3c2)cc1Cl 4.81%
CCNc1ncc2ncc(=O)n(Cc3cccc(OC)c3)c2n1 3.83%
COc1c(-c2coc3cc4c(cc3c2=O)CC(O)C(C)(C)O4)ccc2c1C=CC(C)(C)O2 (stereo not drawn) -15.3%
C[C@@H](O)[C@H]1C(=O)N2C(C(=O)O)=C([C@H]3CCCO3)S[C@H]12 0.809%
CN(C)Cc1ccccc1-c1cncnc1NCc1cccnc1 -10.8%
CC(=O)N1CCC2(CCCN(c3ccncc3)C2)CC1 6.16%
N[C@@H](C(=O)O)[C@@H](CC(=O)O)c1ccc(Cl)cc1 17.6%
COc1ccc2c(c1)O[C@@H]1c3ccc(OC)cc3OCC21 (stereo partly drawn) 5.15%
C[C@@H](NCCCc1cccc(C(F)(F)F)c1)c1cccc2ccccc12 -13.5%
CC(=O)[C@@]1(O)CC[C@H]2[C@@H]3C=C(Cl)C4=CC(=O)[C@@H]5C[C@@H]5[C@]4(C)[C@H]3CC[C@@]21C 9.17%
CO[C@@H]1[C@@H](O[C@@H]2O[C@H](C)[C@@H](O[C@H]3C[C@@](C)(O)[C@@H](OC(=O)CC(C)C)[C@H](C)O3)[C@H](N(C)C)[C@H]2O)[C@@H](CC=O)C[C@@H](C)[C@@H](O)/C=C/C=C/C[C@@H](C)OC(=O)C[C@H]1O
CN(Cc1ccco1)c1ccnc(-c2ccccc2C(F)(F)F)n1 -6.64%
COc1cc(=O)n2c(c1C(=O)NCc1ccco1)CCN(Cc1cccc(Cl)c1)CC2 6.94%
CC(C)c1c(C(=O)NCc2cccnc2)cnn1-c1nccc(-c2ccccc2F)n1 8.75%
COc1ccc(OC)c(/C=C/c2ccnc3ccccc23)c1 -4.67%
CC[N+](C)(C)c1cccc(O)c1
COc1ccccc1CCn1c(=O)c(-c2cccc(Cl)c2)nc2cncnc21 -9.79%
COc1cc(OC)c2nc(-c3cc4c(c(OC)c3)OCCN(C(=O)C(C)c3n[nH]c(=O)c5ccccc35)C4)cc(C)c2c1 (stereo not drawn) 23.1%
NC(=O)[C@@H]1CCCN1C(=O)c1cc(NC(=O)c2ccccc2)cc2ncn(C3CCCC3)c12 4.85%
FC(F)(F)c1ccccc1-c1nccc(N2CCNCC2)n1 -11.8%
CCCN1CCN(C(=O)c2cnn(-c3ncc4c(n3)-c3ccccc3CCC4)c2COC)CC1 8.9%
CN1C(CC(=O)c2ccccc2)CCCC1CC(O)c1ccccc1 (stereo not drawn) 13.6%
Cc1cccc(CNc2ncncc2-c2ccccc2CN(C)C)c1 5.07%
O=c1c(-c2ccccc2)nc2cncnc2n1Cc1ccccc1Cl -10.5%
CCCOc1cc(N)ccc1C(=O)OCCN(CC)CC 29.8% [at 75.8 µM]
O=C(c1cccc(F)c1)N1CCC2(CC1)CN(c1ccccn1)C2 8.81%
O=C[C@H](O)[C@@H](O)[C@H](O)[C@H](O)CO 19.8%
CC1(C)OC2CC3C4CCC5=CC(=O)C=C[C@@]5(C)[C@]4(F)C(O)C[C@@]3(C)[C@]2(C(=O)CO)O1 (stereo partly drawn) 4.5%
COc1ccc(-n2c(=O)c(-c3cc(F)cc(F)c3)nc3cnc(N4CCOCC4)nc32)cc1 -5.61%
OC(Cn1cncn1)(Cn1cncn1)c1ccc(F)cc1F 16.5%
O=C(Nc1ccccc1)N1CC[C@@]2(CCCN(C(=O)c3csnn3)C2)C1 12.6%
C[C@@H]1[C@H](c2ccccc2)OCCS(=O)(=O)N1Cc1cccc(Cl)c1 -9.43%
O=C(Nc1ccccc1)Nc1ccccc1 3.59%
Cc1cnc(SCC2CCCO2)nc1C1CCCN(C(=O)C2=NNC(=O)CC2)C1 (stereo not drawn) 17.6%
CSc1ncccc1C(=O)NCC1Cc2cc(-c3cnccn3)ccc2O1 (stereo not drawn) 9.01%
O=C(c1cc(C(F)(F)F)cc(C(F)(F)F)c1)N1CCC[C@@]2(CCN(Cc3nccs3)C2)C1 -2.52%
COc1ccccc1OCC(O)CN1CCN(CC(=O)Nc2c(C)cccc2C)CC1 (stereo not drawn)
O=[N+]([O-])c1cccc2cn[nH]c12
Cc1cc(C(=O)NCc2nc(-c3ccccc3NC(=O)C3CCCO3)oc2C)nc(C)n1 (stereo not drawn) 3.75%
